Experimental data published in the supplement of paper PMC10126150.
Sequences with one replicate were seen in a single cluster, so their values are uncertain.

Tested on: ATP
Assay: switch fluorescence ratio, 500 uM ATP over buffer (Cy3 cluster intensity, sum of 5 cycles each) (fold (ratio)); higher = stronger signal-on switching upon ATP binding; sequences stand for … in TCGTCGGCAGCGTCAGATGTGTATAAGAGACAGTTTTTTTTTTTTTTTTTTTTTTTTT…TC
Conditions: aptamer strand: ATP DNA aptamer (quencher-CACCTGGGGGAGTATTGCGGAGGAAGG + anchor), 100 nM annealed; ATP concentration: 500 uM; one replicate
How it was run: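 Values give the fluorescence ratio for each switch-domain sequence, averaged from per-cluster ratios of summed target-cycle to summed buffer-cycle Cy3 intensity. The Cy3-labelled switching-strand clusters sat on a modified Illumina MiSeq flow-cell, were annealed to 100 nM quencher-labelled ATP aptamer, and were imaged in selection buffer, then after 15 min with 500 uM ATP at 22 °C. Five cycles ran with NaOH stripping and re-annealing between them, and clusters outside 100-1000 RFU were excluded.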
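Also: ATP exposure 15 min at 22 °C before imaging.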

Sequence	switch fluorescence ratio
TATGAGACT	1.05
ATTAGCCAGA	0.966
CTACCATACG	1.39
TAACAAGCAG	1.05
TGGTTAGGCA	0.991
ATGATTCAAG	1
TGCTGGAGCG	0.993
GGTATGTGTA	0.961
TTTCTGGGTA	1
AATCCAGGAG	1
TCCACGGCGA	2.84
ATCGGACCAT	1.04
GTTGACCTTG	1.02
ATGTGCCGAA	1.01
TTCGGGTTCA	1.02
GGAAAAGGAG	0.996
AGTCTCCAAT	1.03
GACAAGCGTA	1.01
AAACACGATT	1.05
ATAACGGAAC	1.18
GTGTTCCGAA	1.03
CCCGATTAGG	0.983
TCTACTGCAC	1.85

Sequence	switch fluorescence ratio
TCGTCCTTCA	1.14
CGGTTGTGAT	0.998
ATACAAAACC	1.03
TTGGGCCAGC	0.955
AATTTCAAAC	1.01
GCCTCTAGCA	4.17
ATCGGCTATA	1.11
ACTGGTACG	1.13
CGATTGGTGG	1.02
GCGGTTAAAC	1.02
ATTTTTGTT	0.963
CTGGGTAGGT	0.99
TAGGGTCAAT	1.01
CTGTTGGTTG	1.01
TCTTAAGAGG	0.981
TGGCTGGCGT	0.979
AGGCTCAGCC	0.962
TATCTAGGAG	1.02
TACTATCTAG	0.986
GGGAACGGCA	0.992
AAGATTGGAA	1.01
AGGGGATCTC	1.03
ACTACGAGTC	1.05

Sequence	switch fluorescence ratio
ACAGGCTG	0.99
AGTATTCGTT	0.979
AAACAATGGC	1.31
TTCAGATTTG	1.04
TCGAGAATTG	1
CCATGTAAGG	0.963
TCCGTACTTT	1.05
GATACTCTTC	1.02
GAATAAGCGG	0.996
ATGTGGAAAT	1.02
GGAATAATTA	1.04
CGTATGGAAG	0.995
GAAATGGTCT	0.991
TACGTGCGAC	1.16
GGCTGGCCTC	0.965
GGCGTTGAA	0.982
TTACCGGCTT	1.03
TGGTGCAAAT	1.03
TCGATTTCAG	0.996
GATACCATGA	1.01
GGAGGGCTGG	1.03
TCACGGGCAT	1.08
GATCGTACTG	1.02

Sequence	switch fluorescence ratio
AGTGTCGCGG	0.979
GGCATACTCT	2.16
TGTATCCCGT	0.974
TATATTGTGT	0.98
GAAATGCACG	0.947
TGCGTACCTG	1.02
AACTCTCTGC	1.06
CGTACCAACG	1.06
CTCAGGAGGT	0.965
TTGGTATTCC	1.1
TCTGACGTTG	1.03
TGGACGATAG	1.01
TGTGTTA	0.947
TAAACCGGGA	1.08
GGTTAAGACG	1.02
AATTATGCAG	1
GTTCTGAGAT	1.01
TGGGGTCTAA	0.957
TGGATCAGTC	0.969
ATGAGTCGAG	0.973
GCTACCCTTG	1.08
TATGAAAAAG	1.03
GACGCATCCA	2.7

Sequence	switch fluorescence ratio
GGGCGAGACA	1.04
GGTTGAACTG	0.969
TAAATGACGG	0.981
ATGGCCCTGG	1.03
AGTAAAGATC	0.965
ATAGACGTGG	1.04
ACACGTGCTG	1.03
AATTACGTCG	1.01
CTCAGTAGAT	1.02
ACTTCTCCTG	1.11
TTATTATT	1.01
GACACTTTAA	1.09
CCTTATTTAG	1.01
TGGCTGGGT	1.04
CTTTAACCAG	1
GCCCTATAA	0.958
CCCAAAGAGT	1.04
TTTGATTATT	1
AGTTCGGCTC	0.972
ATGGCTCAGA	0.959
TTAATCATA	1.04
GGCTGGATTA	1.01
ACAACGACAG	1.03

Sequence	switch fluorescence ratio
TTATAGAGCT	0.999
TCTCTAGCTA	1.69
CGGAATGATC	1.24
GATTCCGGCA	0.99
AACATAGGGT	0.985
TAAATTAGGC	0.992
TCGGGCGGAT	0.986
ACCATACTG	1.44
CAAAGTTCGG	0.929
CTGACAGGTT	1.84
ATCTGGAAGC	1.41
TGGTATAGAT	1.02
TTTCTACCGG	0.995
GGTGACTTGC	1.07
TGGTAGGGCC	1.01
CGATGATACA	1.02
TAGTGTGTCT	1.02
ATAATCATA	1.02
AAGAAAGCGC	1.07
CCAGCGGCCG	0.965
CTGGAAAGCG	0.986
TTGACAGTGA	0.977
CAGTGATTTT	1.03

Sequence	switch fluorescence ratio
GGATAACAAT	0.981
TTATCTGTGA	0.959
TATGTATCGA	1.02
GCACGGTGAA	1.05
TATTATCGAC	0.967
ACAAGTCAGA	1.01
CATAAGATTT	1.06
GTAATCGGTC	1.02
GGGTTTGAGT	0.965
CTTAGACACG	0.92
GAGGGTCGAT	1.03
CTGTTGTC	1
TCTCACATTA	1.05
GCTCCGGTCC	2.66
CTCTACCCGG	1.25
CTATACTATT	0.97
CCGACCCGCG	2.14
ACCATATCTT	1.07
AGATCGTCGT	1.03
